Data: PubChem BioAssay AID1460 (National Center for Advancing Translational Sciences (NCATS), 2008)
In all, about 270,000 compounds went through this assay and about 5,800 (2.1%) were called active. The shares of active, inactive and inconclusive entries below differ from those in the screen. Calls come from the whole dose curve; as a rule, active = well fitted inhibition curve with a large enough effect; inconclusive = small, poorly fitted or top-dose-only effect; inactive = flat fitted curve, though single readings scatter. Where the call is inconclusive, the potency comes from a doubtful curve fit.

target: Microtubule-associated protein tau (Homo sapiens) (UniProt P10636); assay: qHTS for Inhibitors of Tau Fibril Formation, Thioflavin T Binding; settings: recombinant tau K18 P301L (four-repeat tau fragment), heparin-induced fibrillization, ThT fluorescence; series mostly up to 57.4 µM; note: nearly all actives have a fitted effect of over 55% in size
Method in brief: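 Recombinant human tau K18 fragment […] carrying P301L, 15 uM unlabeled plus 0.24 uM Alexa 594-labeled, was fibrillized with 20 uM heparin in 100 mM sodium acetate pH 7 for 6 hr at 37 C; 30 uM ThT fluorescence read after 1 hr.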
Potency is the fitted concentration of half-maximal effect; tags give direction and shape of the fitted curve.

Sequence of UniProt P10636 (P10636 whole entry, looked up, the tested form may be a part): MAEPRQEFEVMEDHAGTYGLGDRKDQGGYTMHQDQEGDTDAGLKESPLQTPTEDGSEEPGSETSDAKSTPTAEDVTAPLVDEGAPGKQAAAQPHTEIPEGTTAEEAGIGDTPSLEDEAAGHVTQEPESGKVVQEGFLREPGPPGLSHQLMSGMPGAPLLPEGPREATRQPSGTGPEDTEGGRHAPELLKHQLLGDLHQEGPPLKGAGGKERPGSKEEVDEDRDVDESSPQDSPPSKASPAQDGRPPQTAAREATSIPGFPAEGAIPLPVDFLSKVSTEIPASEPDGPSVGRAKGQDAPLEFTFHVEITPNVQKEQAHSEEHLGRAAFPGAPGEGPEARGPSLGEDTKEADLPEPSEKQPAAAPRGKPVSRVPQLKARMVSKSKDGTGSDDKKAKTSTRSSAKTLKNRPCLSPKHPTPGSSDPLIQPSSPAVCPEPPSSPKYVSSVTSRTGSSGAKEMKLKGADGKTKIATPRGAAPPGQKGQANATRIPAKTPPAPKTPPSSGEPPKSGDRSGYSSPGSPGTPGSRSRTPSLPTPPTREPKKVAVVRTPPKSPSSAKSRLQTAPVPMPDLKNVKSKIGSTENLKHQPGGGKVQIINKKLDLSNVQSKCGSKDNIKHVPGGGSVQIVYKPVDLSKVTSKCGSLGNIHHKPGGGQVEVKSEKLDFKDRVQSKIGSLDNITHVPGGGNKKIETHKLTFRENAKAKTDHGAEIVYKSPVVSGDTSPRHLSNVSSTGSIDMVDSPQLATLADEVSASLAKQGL

Row | Structure (SMILES) | Potency
1 | O=C(/C=C/NNC(=O)c1cccc(Br)c1)c1ccccc1 | inconclusive: 28.2 µM [inhibitor, partial curve]
2 | O=[N+]([O-])c1ccc(N2CCN(S(=O)(=O)c3ccc(Cl)c(Cl)c3)CC2)cc1NCCN1CCOCC1 | inconclusive: 0.316 µM [inhibitor, partial curve, poor fit]
3 | Cc1nc2cc(NCc3ccccc3O)ccc2n1Cc1ccccc1 | inconclusive: 44.7 µM [inhibitor, single point]
4 | O=C(CCN1C(=O)/C(=C/c2cccs2)SC1=S)Nc1ccccn1 | inconclusive: 5.01 µM [inhibitor, partial curve, poor fit]
5 | c1coc(C2Nc3cccc4cccc(c34)N2)c1 | active: 11.2 µM
6 | Cc1nc(-c2nnc(SCC(=O)Nc3cc(Cl)cc(Cl)c3)n2C)cs1 | inconclusive: 3.98 µM [inhibitor, full curve, poor fit]
7 | N#CC(C#N)=C1C=C2C=C(N3CCOCC3)CCC2CC1 (stereo not drawn) | inconclusive: 2.51 µM [activator, full curve]
8 | O=C1NC(=Nc2ccc(O)cc2)S/C1=C/c1ccco1 | inconclusive: 7.08 µM [inhibitor, partial curve]
9 | CN1CCN(C(=O)Cn2ncc3c4ccccc4n(Cc4ccc(Cl)cc4)c3c2=O)CC1 | inactive
10 | CCOC(=O)N/N=C/c1cn(CCCOc2ccc(C)cc2)c2ccccc12 | inconclusive: 5.01 µM [inhibitor, partial curve]
11 | CCOc1ccc(Nc2oc(Cc3ccccc3)nc2C#N)cc1 | inconclusive: 20 µM [inhibitor, partial curve]
12 | CCC(=O)NC(=S)Nc1ccc(NC(=O)c2ccc([N+](=O)[O-])cc2)cc1 | inconclusive: 1.12 µM [inhibitor, partial curve]
13 | CCCCN(CC)S(=O)(=O)c1ccc(C(=O)N(CCCN(C)C)c2nc3cc(C)cc(C)c3s2)cc1 | inconclusive: 39.8 µM [inhibitor, single point]
14 | CCNc1nc(N)c(C(=O)c2ccc(Cl)s2)s1 | active: 12.6 µM
15 | COc1ccc(C2C=C(c3ccc(Br)cc3)Nc3nnnn32)c(OC)c1 (stereo not drawn) | inactive
16 | N#C/C(=C\c1ccc(O)c([N+](=O)[O-])c1)c1nc2ccccc2s1 | active: 2.24 µM
17 | CCOc1c(O)ccc(/C=C2\SC(=S)NC2=O)c1[N+](=O)[O-] | active: 10 µM
18 | O=c1[nH]c(/C=C\c2cccs2)nc(O)c1[N+](=O)[O-] | inactive
19 | O=C(CSc1ccc2nnc(-c3ccccn3)n2n1)NCc1ccco1 | inconclusive: 28.2 µM [inhibitor, single point]
20 | Cc1c(CN2CCC(CO)(CCOc3ccccc3)CC2)[nH]c2ccc(Cl)cc12 | inconclusive: 28.2 µM [inhibitor, partial curve]
21 | CN(C)c1ccc(Nc2nc3ccccc3n3nnnc23)cc1 | active: 7.94 µM
22 | COc1ccccc1-c1nn2c(=O)cc(CN3CCN(C(=O)/C=C/c4ccccc4)CC3)nc2s1 | inconclusive: 12.6 µM [inhibitor, partial curve]

Row | Structure (SMILES) | Potency
23 | CCOc1ccc2nc(NS(C)(=O)=O)sc2c1 | inconclusive: 15.8 µM [inhibitor, partial curve]
24 | COC(=O)CCC(=O)Nc1cc(S(=O)(=O)Nc2ccc(Cl)cc2)ccc1N1CCOCC1 | inactive
25 | CC(C)Oc1ccc(C(=O)Nc2cccc3cccnc23)cc1 | inconclusive: 14.1 µM [inhibitor, single point]
26 | Cc1ccc(S(=O)(=O)N2CCCC2C(=O)N(C)Cc2cccs2)cc1 (stereo not drawn) | inactive
27 | Cc1cc(N2CCN(C)CC2)nc2ccc(NC(=S)N3CCCCC3)cc12 | inconclusive: 15.8 µM [inhibitor, partial curve]
28 | Cc1cc([N+](=O)[O-])c(C)cc1-c1ccc(/C=N/NC(=O)c2cccnc2)o1 | active: 7.08 µM
29 | Cc1[nH]n(-c2ncc(-c3ccccc3)s2)c(=O)c1C(c1ccc(Br)cc1)C(C#N)C#N (stereo not drawn) | active: 8.91 µM
30 | CCN1CCN(c2cc(C)c3cc(NC(=S)NCCCN4CCc5ccccc5C4)ccc3n2)CC1 | inconclusive: 28.2 µM [inhibitor, single point]
31 | COc1ccc2c(c1)C(C)=CC(C)(C)N2C(=O)Nc1ccccc1 | active: 28.2 µM
32 | CC(C)(C)c1ccc(C(=O)/C=C2\NC(=O)CS2)cc1 | inconclusive: 22.4 µM [inhibitor, partial curve]
33 | CCN1C(=O)/C(=C/C2=Cc3ccccc3OC2C)SC1=S (stereo not drawn) | active: 12.6 µM
34 | Cc1ccc(C)c(N(C)C(=O)Cc2c(C(=O)O)[nH]c3ccc(Cl)cc23)c1 | inconclusive: 25.1 µM [inhibitor, partial curve, poor fit]
35 | CC1=C(C#N)c2nc(N)c(C#N)c(C)c2/C1=C\c1ccc(C)cc1 | active: 17.8 µM
36 | CCOC(=O)C1=C[C@]2(CC)CCCN3CCc4c(n1c1ccccc41)[C@@H]32 | inconclusive: 44.7 µM [inhibitor, single point]
37 | Cc1c(Cl)cnc(NC(=O)COC(=O)c2ccc3c(c2)OCO3)c1Cl | inconclusive: 17.8 µM [inhibitor, single point]
38 | CCN(CC)S(=O)(=O)c1cccc(C(=O)Oc2cccnc2)c1 | inconclusive: 15.8 µM [inhibitor, partial curve, poor fit]
39 | Cc1c(Cl)cccc1Nc1nn2c(=O)c3ccc(C(=O)NCCC4=CCCCC4)cc3nc2s1 | inconclusive: 17.8 µM [inhibitor, partial curve, poor fit]
40 | Nc1nc(-c2ccccc2)[nH]c(=O)c1N | inconclusive: 35.5 µM [inhibitor, single point]
41 | O=C(CNc1ccccc1)N/N=C/c1ccc2c(c1)OCO2 | inconclusive: 25.1 µM [inhibitor, partial curve]
42 | O=C(Nc1ccccc1)O/N=C1\CCCCC1c1ccc([N+](=O)[O-])cc1[N+](=O)[O-] (stereo not drawn) | inconclusive: 8.91 µM [inhibitor, full curve]
43 | COc1ccc(NC(=O)COC(=O)CCCc2c[nH]c3ccccc23)cc1 | inconclusive: 39.8 µM [inhibitor, single point]
